# Several values for one entry are separate records, joined by “and”; a condition that tells them apart may be missing. Equal values may be shown once. In all, about 310,000 compounds went through this assay and about 18,000 (5.8%) were called active. Inconclusive means that the source gave no clear call. Such entries were picked first, then a sample of the others. The call rests on the fitted dose curve; in most records, active means well fitted inhibition curve with a large enough effect; inconclusive means small, poorly fitted or top-dose-only effect, or another doubt; inactive means no such curve, though single readings can be large or run the other way. No potency is given beside an inconclusive call; the fits are too rough.
# Assay: Primary qHTS for delayed death inhibitors of the malarial parasite plastid, 48 hour incubation
# Conditions: P. falciparum luciferase growth in erythrocytes; series mostly up to 28.7 µM
# Procedure, shortened: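 Luminescence readout; reporter = integrated firefly luciferase in P. falciparum. RBC culture at 2% hematocrit, 0.1% parasitemia final, 37 C/5% CO2; decreased signal taken as growth inhibition.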
# Potency means the concentration at half of the fitted maximal effect; tags describe the fitted curve by direction and shape.
row,Structure (SMILES),Potency
1,COc1ccc(-c2nnc(Nc3ccc(OC)c(C(=O)N4CCCCC4)c3)c3ccccc23)cc1,active: 5.22 µM
2,O=C(c1cc(N2C(=O)C3C4CCC(C4)C3C2=O)ccc1Cl)N1CCCCCC1 (stereo not given),"inconclusive [inhibitor, full curve, poor fit]"
3,CCCCn1c(-c2ccc(F)c(F)c2)nc2cc3[nH]c(=O)c(C(C)C)nc3cc21,inactive
4,CCCCn1c(N)c(N(CCOC)C(=O)CN2c3ccccc3CC2C)c(=O)[nH]c1=O (stereo not given),inactive
5,Cc1ccccc1CCNC(=O)C1CCC(=O)N(C2CCCCCC2)C1 (stereo not given),"inconclusive [inhibitor, single point]"
6,CN(C)S(=O)(=O)c1ccc(N2CCCC2)c(C(=O)NCCc2ccc(F)cc2)c1,"inconclusive [inhibitor, single point]"
7,CCN(CC)CCCn1c2c(c(SCC(=O)Nc3ccc(OC(F)(F)F)cc3)nc1=O)CCC2,"inconclusive [inhibitor, single point]"
8,O=C(NCCCN1CCN(CCCNC(=O)c2cccc([N+](=O)[O-])c2)CC1)c1cccc([N+](=O)[O-])c1,"inconclusive [inhibitor, partial curve, poor fit]"
9,Cc1cccc(Cn2nc(C(C)(C)C)cc2C(=O)N2CCOCC2)c1,"inconclusive [inhibitor, partial curve]"
10,COc1cc(C)ccc1OCc1cc(C(=O)N2CCN(C)C[C@@H]2c2ccccc2)no1,"inconclusive [inhibitor, partial curve, poor fit]"
11,CCC(C(=O)Nc1ccccc1Cl)n1nc(C)c2c(C)n(-c3ccccc3)nc2c1=O (stereo not given),"inconclusive [inhibitor, single point]"
12,COc1ccc(N2CCN(C(=O)[C@@H](NC(=O)c3ccccc3Cl)C(C)C)CC2)cc1,"inconclusive [inhibitor, partial curve]"
13,O=C(CNS(=O)(=O)c1cccc(F)c1)OCC(=O)N1CCCC1=O,inactive
14,N#Cc1cc2ccccc2nc1SCC(=O)Nc1ccc(S(=O)(=O)N2CCCC2)cc1,active: 9.28 µM
15,COc1ccccc1C(=O)C1CCCN(C(=O)Nc2ccccc2F)C1 (stereo not given),inactive
16,NNC(=O)CN1C(=O)Nc2ccc(Br)cc2C1c1ccccc1 (stereo not given),"inconclusive [inhibitor, partial curve, poor fit]"
17,Cc1oc(/N=C/c2ccccc2O)c(C#N)c1C,inactive
18,COc1ccc(NCc2ccc3c(c2)OCO3)cc1Cl,inactive
19,CC(=O)c1c(N2CCCCC2)nc(=S)n(Cc2ccccc2)c1C,"inconclusive [inhibitor, single point]"
20,Cc1nc2ccc(-c3nc4ccc(N)cc4[nH]3)cc2[nH]1,"inconclusive [inhibitor, single point]"
21,c1csc(C2=Nn3c(nnc3-c3ccncc3)SC2)c1,inactive
22,Cc1cc(C)c(NC(=O)CNC(=O)COC(=O)CNC(=O)c2ccc(Cl)cc2Cl)c(C)c1,inactive
23,CCn1c(CNC(=O)c2ccco2)nnc1SCC(=O)c1ccc(OC)cc1,inactive
24,COc1cc(N=Nc2cccc(S(N)(=O)=O)c2)c2ccccc2c1N,active: 4.15 µM

row,Structure (SMILES),Potency
1,COc1ccccc1NS(=O)(=O)c1ccc(C(=O)NCC2(N(C)C)CCCCC2)cc1,"inconclusive [inhibitor, single point]"
2,CCOc1ccc(C(=O)NCC(=O)NCC(c2ccc(OC)cc2)N2CCCC2)cc1 (stereo not given),"inconclusive [inhibitor, partial curve, poor fit]"
3,Cn1c(N2CCOCC2)nc2c1c(=O)n(Cc1ccc(Cl)c(Cl)c1)c(=O)n2C,"inconclusive [inhibitor, single point]"
4,CCCC1(C)NC(=O)c2ccccc2O1 (stereo not given),inactive
5,CC(=O)Nc1ccc(NC(=O)C(C)OC(=O)C2(c3ccccc3F)CCCC2)cc1 (stereo not given),active: 8.28 µM
6,CCN1C(=O)/C(=C2/C=Cc3cc(C)ccc3N2CC)N(C)C1=S,"inconclusive [inhibitor, single point]"
7,O=C(Nc1nnc(Cc2ccc([N+](=O)[O-])cc2)s1)Nc1ccccc1F,inactive
8,Cc1ccc(C(=O)Nc2ccccc2N2CCOCC2)cc1S(=O)(=O)N1CCOCC1,active: 13.1 µM
9,COc1ccccc1C(=O)N=c1sc2c(C)ccc(OC)c2n1C,inactive
10,CCn1c(=O)c(C(=O)NC(C)C)c(O)c2ccccc21,"inconclusive [inhibitor, single point]"
11,Clc1ccc2[nH]c3c(NCCCN4CCOCC4)ncnc3c2c1,active: 0.415 µM
12,COc1cc(NC(=O)c2ccc(N3CC4CC(C3)c3cccc(=O)n3C4)c(NC(=O)c3ccncc3)c2)cc(OC)c1OC (stereo not given),"inconclusive [inhibitor, single point]"
13,O=C(Nc1ccc2c(c1)OCCO2)c1cc2sccc2n1Cc1ccccc1,"inconclusive [inhibitor, single point]"
14,Cc1ccc(C)c(N2N=C(C(=O)Nc3ccc(S(=O)(=O)N4CCCC4)cc3)CCC2=O)c1,"inconclusive [inhibitor, partial curve]"
15,Cc1cc(C)n(-c2nc3ccccc3nc2N2CCN(C(=O)c3ccc(F)cc3)CC2)n1,"inconclusive [inhibitor, single point]"
16,CCC(C)C(NC(=O)C1CCC(C)CC1)C(=O)Nc1ccc(OC)cc1OC (stereo not given),"inconclusive [inhibitor, partial curve]"
17,O=C(Nc1ccc(NC(=O)c2cccnc2)cc1)c1ccccc1,inactive
18,COc1cc(SC)ccc1C(=O)OCC(=O)NC(=O)NC(C)C,inactive
19,CC(=O)Nc1sc2c(c1-c1nc3ccccc3s1)CCN(C(C)C)C2,active: 2.94 µM and active: 3.7 µM
20,N#CCCN1CCN(C2=NC(=O)/C(=C\c3cccs3)S2)CC1,"inconclusive [inhibitor, partial curve, poor fit]"
21,Cc1ccc2c(c1)/C(=C/c1ccco1)C(=O)N2,inactive
22,CCOc1ccc(CCNc2nc3ccccc3n3cnnc23)cc1OCC,"inconclusive [inhibitor, partial curve]"
23,COc1ccc(S(=O)(=O)N2CCCCCC2)cc1C(=O)Nc1ccc(C(=O)N(C)C)cc1,"inconclusive [inhibitor, single point]"
24,Cc1c(NC(=O)COC(=O)c2c3c(nc4ccccc24)CCCC3)c(=O)n(-c2ccccc2)n1C,inactive

row,Structure (SMILES),Potency
1,CCOc1ccccc1NC(=O)CSc1nnc(-c2ccco2)n1Cc1ccco1,"inconclusive [inhibitor, single point]"
2,COc1cccc(CNC(=O)c2ccc(NC(=O)CC3SC(N4CCCC4)=NC3=O)cc2)c1 (stereo not given),"inconclusive [inhibitor, partial curve, poor fit]"
3,O=C(CSc1nnc(C2COc3ccccc3O2)o1)NC1CCCCC1 (stereo not given),inactive
4,O=C(CCN1Cc2ccccc2C1)c1ccc2c(c1)OCCO2,"inconclusive [inhibitor, single point]"
5,COc1ccc(S(=O)(=O)N(Cc2ccccc2)c2ccccc2C(=O)O)cc1,inactive
6,CCOC(=O)C1C(=O)C=C(c2ccc(OC)cc2)CC1c1ccco1 (stereo not given),"inconclusive [inhibitor, single point]"
7,CCCCn1c(N)c(N(CCC(C)C)C(=O)c2cc(CC)c(C)s2)c(=O)[nH]c1=O,"inconclusive [inhibitor, single point]"
8,COC(=O)C1=C(C(=O)OC)[C@@H]2N(Cc3ccccc3)c3ccccc3[C@@]23C[C@@H](C(=O)OC)N(C(=O)CC(C)C)C3=N1,active: 4.15 µM
9,CN(Cc1ccc(-n2cccn2)cc1)C(=O)c1cnn2c1NC(c1ccco1)CC2C(F)(F)F (stereo not given),"inconclusive [inhibitor, single point]"
10,O=C(c1cccc([N+](=O)[O-])c1)N1CCCC(C(=O)N2CCCCC2)C1 (stereo not given),inactive
11,O=C(Nc1ccccc1[N+](=O)[O-])C1COc2ccccc2O1 (stereo not given),inactive
12,CC(=O)c1ccc(N(C(=O)c2ccco2)C(C(=O)NC2CCCC2)c2cccs2)cc1 (stereo not given),"inconclusive [inhibitor, partial curve, poor fit]"
13,CCOc1cc(/C=N/N=C2/NC(=O)C(CC(=O)O)S2)ccc1OCc1ccccc1Cl (stereo not given),"inconclusive [inhibitor, single point]"
14,CC(=O)N1CN(CCCn2ccnc2)Cc2c1sc1c2CCCC1,"inconclusive [inhibitor, single point]"
15,Cc1ccc(N2C(=O)CC3(CC4C=CC3C4)C2=O)cc1 (stereo not given),inactive
16,COc1cc(C(=O)Nc2cccc(-c3nc4ccccc4o3)c2C)cc(OC)c1OC,inactive
17,Cc1cc(N2CCN(C)CC2)nc2ccc(NC(=S)NCCCN3CCN(C)CC3)cc12,"inconclusive [inhibitor, partial curve, poor fit]"
18,CCOc1ccc(-n2c(C)c(C(=O)O)c3cc(OC)ccc32)cc1,"inconclusive [inhibitor, partial curve, poor fit]"
19,O=C(Cn1cnc2ccccc2c1=O)NCc1ccc2c(c1)OCO2,inactive
20,COc1cc(C(=O)NCc2nnc(SCC(=O)N3CCOCC3)o2)cc(OC)c1OC,inactive
21,CCCNC(=O)c1cc(-c2ccc3c(c2)OCO3)on1,inactive
22,CCN(c1ccccc1)S(=O)(=O)c1cc(C(=O)OC2CCOC2=O)ccc1C (stereo not given),"inconclusive [inhibitor, single point]"

# Source: PubChem BioAssay AID504832 (National Center for Advancing Translational Sciences (NCATS), 2011)
